Out of some 45,000 compounds screened, about 65 (0.1%) were called active. The call rests on the fitted dose curve; in most records, active means well fitted activation curve with a large enough effect; inconclusive means small, poorly fitted or top-dose-only effect; inactive means no such curve, though single readings can be large or run the other way. Some of the results follow.

Chain of UniProt P54803 (P54803 whole entry, looked up): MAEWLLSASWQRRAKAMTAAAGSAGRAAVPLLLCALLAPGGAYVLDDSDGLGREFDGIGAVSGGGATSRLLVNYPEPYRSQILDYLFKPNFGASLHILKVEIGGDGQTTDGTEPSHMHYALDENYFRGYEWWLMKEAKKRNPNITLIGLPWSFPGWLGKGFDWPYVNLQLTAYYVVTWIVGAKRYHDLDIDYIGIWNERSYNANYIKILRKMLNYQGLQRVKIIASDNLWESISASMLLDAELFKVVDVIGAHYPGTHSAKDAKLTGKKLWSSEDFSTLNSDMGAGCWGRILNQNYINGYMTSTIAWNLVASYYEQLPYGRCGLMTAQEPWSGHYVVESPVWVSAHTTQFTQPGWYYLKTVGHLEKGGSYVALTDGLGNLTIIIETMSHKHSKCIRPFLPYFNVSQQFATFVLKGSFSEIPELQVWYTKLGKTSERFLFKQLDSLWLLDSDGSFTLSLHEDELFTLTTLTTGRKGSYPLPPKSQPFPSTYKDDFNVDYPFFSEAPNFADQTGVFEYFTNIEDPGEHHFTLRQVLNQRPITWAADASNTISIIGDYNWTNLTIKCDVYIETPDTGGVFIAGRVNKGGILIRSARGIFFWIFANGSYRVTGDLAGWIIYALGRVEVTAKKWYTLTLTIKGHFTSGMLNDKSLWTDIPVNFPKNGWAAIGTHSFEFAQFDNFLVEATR

The experiment addresses Galactocerebrosidase (Homo sapiens) (UniProt P54803). In words: A Novel Cell-Based Assay to Identify Small Molecules for B -Galactocerebrosidase. Further: 0% is about no effect; nearly all actives have a fitted effect of over 65% in size. The settings on record: 145M-Twi-hGALC-G270D cells (Twitcher mouse brain line with human GALC G270D), HMU-beta-Gal fluorescence, 48 h; series mostly up to 57.5 µM; activation: at the top concentration. In a few lines:
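Fluorogenic HMU-b-Gal hydrolysis (0.1 mM final, pH 5.2 citrate-phosphate with 1 mg/mL sodium taurocholate; carbonate stop buffer) measures mutant GALC activity after compound treatment of live 145M-Twi Twitcher brain cells stably carrying human GALC-G270D, with wild-type GALC line alongside; activation sought.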
For `CC(C)c1ccc(N2C(=O)CSC23C(=O)N(C)c2ccccc23)cc1` (stereo not given), the “activation” value was inactive: -4.15%.
The same measure for `COc1ccc(C2=C(C)C(=O)N(Cc3ccc(C(=O)NCc4cccc(C)c4)cc3)S2(=O)=O)cc1`: inactive: 16.9%.
Consider `COc1ccc2c(c1)c(N1CCCC1=O)c(C(=O)Nc1ccccc1C(F)(F)F)n2C`, for which the “activation” value was inactive: -19%.
With `COc1ccc(-c2noc(N3CCC(C(=O)N4CCN(c5cccc(C)c5C)CC4)CC3)n2)cc1`, the “activation” value was inactive: -8.26%.
With `COc1ccc(C2=NC(c3ccncc3)=Nc3ccc(OC)cc3N2)cc1` the figure was inactive: -27.3%; with `CCOc1ccc(NC(=O)CCNS(=O)(=O)c2cccc3nonc23)cc1`, inactive: -5.49%.
With `CC(C)OCCCNC(=O)c1ccc(CSc2nc3cccnc3n2Cc2ccccc2)cc1` the figure was inactive: -33.7%; with `COc1ccc(-c2nc3ccc(NS(=O)(=O)c4ccc(C)cc4)cc3o2)cc1`, inactive: -0.487%; with `O=C(OCc1cc(=O)n2nc(-c3cccs3)sc2n1)c1ccc(Cl)cc1`, inactive: -9.7%.
For the molecule `O=C(CN1C(=O)COc2ccc(Cl)cc21)Nc1ccc(F)cc1`, the “activation” value was inactive: -5.71%.
With `CCN(C(=O)c1nn(-c2ccc(OC)c(Cl)c2)c(=O)c2c1c1ccccc1n2C)c1cccc(C(F)(F)F)c1` the figure was inactive: -21.4%.
Turning to `CCCOc1cccc(C(=O)Nc2cccc3cccnc23)c1`, the “activation” value was inactive: -18.3%.
The same measure for `Cc1cc(CN2CCN(c3ccccc3F)CC2)cs1`: inactive: -7.91%; for `CCOc1ccc(CNCc2c(C(=O)O)c(C)n(Cc3cccc(OC)c3)c2C)cc1OC`: inactive: -3.33%.
The same measure for `O=C(CCC(=O)N1CC2CCCN2c2ccccc21)NCc1ccc(Cl)cc1` (stereo not given): inactive: -3.95%; for `CCC1CCC(C(=O)NC(C(=O)Nc2cccc(OC)c2)C(C)C)CC1` (stereo not given): inactive: -5.71%; for `Cc1nc2nc(CNC(=O)OC(C)(C)C)nn2c(C)c1CCC(=O)NCc1ccc(F)cc1`: inactive: 8.25%.
In the case of `Cc1nc2sccn2c(=O)c1S(=O)(=O)Nc1ccc(N2CCOCC2)c(Cl)c1`, the “activation” value is inactive: -5.5%.
The same measure for `Cc1ccc(NC(=O)Cn2ncn3c(cc4ccccc43)c2=O)cc1F`: inactive: -11.4%; for `CCC1=C(c2ccc(C)cc2)S(=O)(=O)N=C1N1CCC(C(=O)Nc2ccccc2F)CC1`: inactive: -9.15%; for `Cc1ccc(Cn2c(C(=O)NCc3ccccc3Cl)cc3sccc32)cc1`: inactive: 10.7%.
On to `COC(=O)c1c(SCC(=O)Nc2cc(OC)cc(OC)c2)[nH]c2ccc(C)cc2c1=O`, for which the “activation” value was inactive: -19.9%.
With `COc1ccc(CNC(=O)CCCN2C(=O)CSc3c2c(C)nn3-c2ccccc2)cc1` the figure was inactive: -8.55%; with `COC(=O)c1cc2sc(C)cc2n1Cc1cccc(OC)c1`, inactive: -3.33%; with `COc1ccc(C2Nc3ccccc3-c3cc(C)nn32)cc1OC` (stereo not given), inactive: -15.2%.
Regarding `FC1(F)C(F)(F)C(F)(F)C2(F)C(F)(F)C(F)(F)C(F)(F)C(F)(F)C2(F)C1(F)F` (stereo not given), the “activation” value is inactive: -17.9%.
With `O=c1cc(-c2ccccc2)nc(SCc2nc(-c3ccccc3Cl)no2)[nH]1` the figure was inactive: 1.47%.
As for `CCOc1cc(C(=O)Nc2cc3c(cc2N2CCOCC2)n(C)c(=O)n3C)cc(OCC)c1OCC`, the “activation” value is inactive: -22.3%.
The same measure for `CCOC(=O)c1c(-c2ccc(OC)cc2)oc2ccc(OCc3ccccc3C)cc12`: inactive: 6.71%.
For `Cc1cccn2c(=O)c(C(=O)NCc3ccc(F)cc3)c(O)nc12`, the “activation” value is inactive: -9.65%.
With `CCN(CC)CCNC(=O)C1CCN(c2nn3cc(-c4ccc(F)cc4)nc3s2)CC1` the figure was inactive: 3.27%; with `CN(C/C=C/C#CC(C)(C)C)Cc1cccc2ccccc12`, inactive: -15.4%.
Take `CCOC(=O)c1c(C)[nH]c(C)c1S(=O)(=O)N1CCCC(C(=O)NCc2cccc(C)c2)C1` (stereo not given): the “activation” value is inactive: -13.5%.
Turning to `Cc1ccccc1CNC(=O)CCCn1c(=O)c2cccn2c2cccnc21`, the “activation” value is inactive: 7.27%.
Regarding `CNc1ncnc2c1cnn2-c1ccc(C)c(C)c1`, the “activation” value was inactive: -17.5%.
Turning to `COc1cc(NC(=O)c2cccc3c2C(=O)N(C2CCCCC2)C3)cc(OC)c1OC`, the “activation” value is inactive: -18.3%.
With `Oc1ccccc1-c1nc(/C=C/c2ccccc2Cl)nn1-c1ccccc1` the figure was inactive: -30.1%.
In the case of `Fc1ccc([C@@H]2CCNC[C@H]2COc2ccc3c(c2)OCO3)cc1`, the “activation” value is inactive: -13%.
Turning to `Cc1ccc(N2CC(NC(=O)c3cccs3)CC2=O)cc1C` (stereo not given), the “activation” value is inactive: -13.5%.
The same measure for `Cc1cccc(NC(=O)c2ccc(-n3cnc4cccnc43)cc2)c1C`: inactive: -30%; for `CCc1ccc(C(=O)c2cn(CC(=O)Nc3ccc4c(c3)OCO4)c3ccc(OC)cc3c2=O)cc1`: inactive: -16.1%; for `CC1=C(c2ccc(C)c(C)c2)S(=O)(=O)N=C1N1CCC(C(=O)N2CCC(C)CC2)CC1`: inactive: -14.7%.
The same measure for `Cc1ccccc1OCc1ccc(-c2nc(C#N)c(NCc3cccnc3)o2)o1`: inactive: -9.16%; for `CCOc1cc(/C=C(\C#N)C(=O)NCC2CCCO2)ccc1O` (stereo not given): inactive: -11.9%.
The same measure for `COc1ccc(OC)c(CNC(=O)C(C)n2c(C)c3cnn(-c4ccccc4)c(=O)c3c2C)c1` (stereo not given): inactive: -1.53%; for `CCOc1ccc(NC(=O)C2CCC(CNS(=O)(=O)c3ccc(Br)s3)CC2)cc1` (stereo not given): inactive: -18.1%; for `CCN(CC)C(=O)Cn1c(=O)nc(-c2ccccc2F)c2cc(Cl)ccc21`: inactive: -7.96%.
Take `COC(=O)c1cnc(NCc2ccc(F)cc2)c2ccccc12`: the “activation” value is inactive: -12.1%.
For `Cc1cc(F)ccc1S(=O)(=O)Nc1ccc2c(c1)CCCN2C(=O)c1cccs1`, the “activation” value was inactive: 28.2%.
In the case of `COc1ccc(N2C(=O)C(CC(=O)Nc3ccc(F)cc3)N(Cc3ccc4c(c3)OCO4)C2=O)cc1` (stereo not given), the “activation” value was inactive: -11.3%.

For the origin of these results see PubChem BioAssay AID1159614 (National Center for Advancing Translational Sciences (NCATS), 2016).
